Paper PMC4336329 (PLoS ONE, 2015)
In all, about 310,000 compounds went through this assay and about 14,000 (4.5%) showed an effect of 50% or more. The effect is printed as a negative number. This is one part of the list.

biological target: human ether-à-go-go-related gene (hERG) potassium channel (human, UniProt Q12809); experiment: primary screen, population patch clamp on CHO cells stably expressing hERG
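Further: peak tail current of the secondary pulse compared with the same well before compound.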

Chain of human ether-à-go-go-related gene (hERG) potassium channel (Q12809 whole entry, looked up): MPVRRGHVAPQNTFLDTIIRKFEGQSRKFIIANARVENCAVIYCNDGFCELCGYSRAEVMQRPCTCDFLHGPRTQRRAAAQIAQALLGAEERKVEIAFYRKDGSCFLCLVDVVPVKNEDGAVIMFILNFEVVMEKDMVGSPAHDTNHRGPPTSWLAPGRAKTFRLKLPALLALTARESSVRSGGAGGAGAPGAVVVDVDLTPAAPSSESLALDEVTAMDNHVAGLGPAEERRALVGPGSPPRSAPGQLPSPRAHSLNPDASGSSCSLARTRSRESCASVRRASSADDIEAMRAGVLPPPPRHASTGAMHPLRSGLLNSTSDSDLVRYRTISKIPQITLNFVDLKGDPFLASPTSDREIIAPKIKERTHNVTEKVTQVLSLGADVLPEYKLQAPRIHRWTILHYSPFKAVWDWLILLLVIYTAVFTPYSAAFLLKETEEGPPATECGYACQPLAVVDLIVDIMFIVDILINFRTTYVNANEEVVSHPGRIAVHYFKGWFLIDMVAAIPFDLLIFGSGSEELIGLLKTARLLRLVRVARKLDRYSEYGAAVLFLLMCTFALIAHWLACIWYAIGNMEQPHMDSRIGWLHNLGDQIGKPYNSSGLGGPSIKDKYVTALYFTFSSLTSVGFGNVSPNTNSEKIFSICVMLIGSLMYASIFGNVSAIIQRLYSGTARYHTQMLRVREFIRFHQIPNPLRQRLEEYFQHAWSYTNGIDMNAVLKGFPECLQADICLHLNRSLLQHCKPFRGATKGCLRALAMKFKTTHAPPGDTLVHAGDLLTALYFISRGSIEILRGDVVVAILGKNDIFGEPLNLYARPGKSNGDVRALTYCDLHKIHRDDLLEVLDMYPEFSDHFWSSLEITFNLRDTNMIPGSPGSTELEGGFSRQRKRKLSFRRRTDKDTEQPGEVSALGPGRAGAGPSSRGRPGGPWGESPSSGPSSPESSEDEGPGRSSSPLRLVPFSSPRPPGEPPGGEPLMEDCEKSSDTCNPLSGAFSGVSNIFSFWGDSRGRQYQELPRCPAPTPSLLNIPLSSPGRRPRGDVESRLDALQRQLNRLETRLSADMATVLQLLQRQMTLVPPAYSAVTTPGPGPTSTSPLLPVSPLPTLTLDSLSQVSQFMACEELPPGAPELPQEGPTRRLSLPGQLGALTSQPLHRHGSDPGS

SMILES	hERG current change (%, negative = inhibition) at 10uM [%]
CCCOc1ccccc1OCC(=O)Nc1ccc(S(=O)(=O)N2CCCCC2)cc1	7.99
Cc1cc(C)n2nc(SCC(=O)NC3CCCCC3C)nc2n1 (stereo not drawn)	14.6
Cc1ccc(S(=O)(=O)CCC(=O)Nc2ccc3c(c2)OCO3)cc1	-16
Cc1cccc(NC(=O)CCn2ccnc2C)c1	-1.42
O=C1CCCc2nc3c(cc21)C(O)Oc1ccccc1-3 (stereo not drawn)	-3.3
CCCCCCn1c(C(C)O)nc2ccccc21 (stereo not drawn)	-18.4
CCN(CC)S(=O)(=O)c1ccc(-c2nnc(SCC(N)=O)n2CC)cc1	35.8
CC12CNCC(C)(CN(C3(O)C(=O)Nc4ccc(Br)cc43)C1)C2=O (stereo not drawn)	3.04
C=CCn1c(Br)nc2c1c(=O)[nH]c(=O)n2C	-5.15
O=C(NCc1cccs1)C(=O)NCC1OCCCN1S(=O)(=O)c1ccccc1 (stereo not drawn)	-14.5
CCOc1ccc(C(=O)/C=C/Nc2ccc(S(=O)(=O)Nc3onc(C)c3C)cc2)cc1	12
CCCNS(=O)(=O)c1ccc(-n2cnnn2)c(OC)c1	5.49
COc1ccc(OCCN2C(=O)NC(C)(c3ccc(C)cc3)C2=O)cc1 (stereo not drawn)	-6.89
O=C(Nc1cccc2cccnc12)c1cccc([N+](=O)[O-])c1	10.7
CCn1c(SCC(=O)NC(C)C)nnc1-c1cccs1	12.4
O=C1Nc2ccc(Br)cc2C1=C1CCCCC1	18
COc1ccc(CN(C(=O)c2oc3ccccc3c2C)C2CCS(=O)(=O)C2)cc1 (stereo not drawn)	-31.5
O=C(COc1ccccc1)N(Cc1ccco1)c1ccc(O)cc1	-3.88
Cc1cccc(NS(=O)(=O)c2ccc([N+](=O)[O-])cc2)n1	-15.2
Cc1cc(/C=C2/SC(=S)N(c3ccc([N+](=O)[O-])cc3)C2=O)c(C)n1-c1cccnc1	15.5
[O-]/[N+](=C/c1ccc(F)cc1)c1ccc(Cl)cc1	5.77
Cc1ccc(-n2c(Cc3cccn3C)nnc2SCC(=O)Nc2ccc3c(c2)OCO3)cc1	-23.8
O=C(CCC(=O)c1ccccc1)NCCc1c[nH]c2ccccc12	-0.0564

SMILES	hERG current change (%, negative = inhibition) at 10uM [%]
CCOC(=O)CN1C(=N)N(c2nc(NC(C)C)nc(OC)n2)CC1=O	-13.1
O=S(=O)(c1ccccc1)N1CCN(c2nnnn2-c2ccccc2)CC1	-3.96
O=S(=O)(c1ccccc1OC(F)(F)F)N1CCN(c2ccnc3cc(Cl)ccc23)CC1	-18.4
CC(C(=O)c1ccccc1)[n+]1cccc(Br)c1.[Br-] (stereo not drawn)	-1.52
CC(C)(C)C(=O)Nc1ccc(F)cc1[N+](=O)[O-]	5.56
Cl.N=c1ccn(Cc2ccc(Cl)cc2)cc1	-2.86
CSc1cccc(NC(=O)CC2Oc3ccccc3NC2=O)c1 (stereo not drawn)	6.18
Cc1cc(=O)n2nc(N3CCC(C(=O)N4CCN(C)CC4)CC3)sc2n1	17.5
Oc1cccc2ccc(Nc3ccccn3)nc12	-53.6
CCc1ccc(NC(=O)CSc2nnc(CNC(=O)c3cccs3)o2)cc1	-3.67
CCCCNC(=O)Cn1c(=O)n(C)c2ccccc21	17.3
O=C(N1CCOCC1)N1CCC(c2nc(-c3ccc(S(=O)(=O)N4CCOCC4)cc3)no2)CC1	-2.07
COc1ccc(-n2c(SCC(C)=O)nc3sc(C)c(C)c3c2=O)cc1	22.1
COc1ccc(CC(=O)NNC(=O)c2ccncc2)cc1	29.1
CCCC(C(=O)NC1CCCC1)N(Cc1ccc(OC)cc1)C(=O)c1snc(C(N)=O)c1N (stereo not drawn)	-29.3
CC(C)CN(C(=O)COC(=O)c1ccc(Br)o1)c1c(N)n(Cc2ccccc2)c(=O)[nH]c1=O	13
O=c1c2cc(NC(=S)N3CCCCC3)ccc2nc2n1CCCCC2	-55.7
CCN=C1SC(CC(=O)NC2CCCCC2)C(=O)N1CC (stereo not drawn)	3.06
CCC1=Nc2cc(C(=O)NCCN3CCCC3)ccc2Sc2ccc(C)cc21	-29
COC(=O)C(NC(C)=O)(Nc1nc2ccc(S(C)(=O)=O)cc2s1)C(F)(F)F (stereo not drawn)	18.2
O=C(CSc1n[nH]c(-c2ccc(S(=O)(=O)NC3CCCCC3)cc2)n1)N1CCCC1	-11.4
COCCn1nnnc1C(c1cc2c(C)cc(C)cc2[nH]c1=O)N1CCCCCC1 (stereo not drawn)	-0.0829
